To fix the notation:
B1: LINE1-full (parent)
chain: UACGUAGGUGGUUUUCCCCUGAUAGUGCUAAGGGGGCCUGGAAGUUUGGACUGGGCAGAGCUCAACACAGCGUGGCAAAGUGGCUGUGGCUAGACUGCCUCUCUGGAUUCCUCGUCACUCAGCAGGGCAUCUCUGAGAGAAAUGCC

Read counts are not given, so values of variants with three or more changes are uncertain.

In the series the parent is B1. Nature of the series: self-cleavage, relative activity (ratio to wild type); higher = more cleavage; in vitro, sequencing; the parent is a self-cleaving ribozyme.
In the case of A24G C37G U130C U143C, the self-cleavage was 1.31. As to U23C A78U A79G U100C U132C A142G, the self-cleavage stood at 0. As to U26A A94C U115C, the self-cleavage was 0.

With A24U A124G A141G, the self-cleavage turned out to be 1.75.

Take G25U A43G U46A U85A: the self-cleavage is 0.06. As for A22U G32A A43G U85C U100C U112A C128U U134C, the figure is 0.12; as for U23A U62C A67G U104A, 0.27; as for G25A U39A U134C A141G, 0.47.

For the variant A24G A121C A141G, the self-cleavage is 0.41. In the case of A24G U45G A121U it was 0.68; in that of G25A U39A U46C C123U, 2.21.

On to A22G U62C A136G, for which the self-cleavage came to 0. As for A22U U29A A67U, the self-cleavage was 0.28. Turning to A22U U39C C120A, the self-cleavage amounted to 0.79. For the variant A24G A64G U87G G125U, the self-cleavage was 0.18.

Turning to U23C A24G U134A, the self-cleavage is 1.11. As for U23A C84A A140G, the figure is 0.07. As for A24U A138G A140U, the figure is 0.44. As for U23C A79G C113A, the figure is 1.79.

For A22G U104C U134C, the self-cleavage worked out at 0.85. In the case of A24G G34A U46C U87C U119A A140U it was 0.35. A22U U45C U119C: the self-cleavage was 1.62. A24G A65U U100C U134G A140G: the self-cleavage came to 0.74. With A24G U47C U62C U91C, the self-cleavage amounted to 0. For the variant A24G A77U C98A A107G U134A, the self-cleavage turned out to be 0.84.

Regarding U23C C120U A124U, the self-cleavage turned out to be 2.13. In the case of U23C A78U U81C A117G U134C it was 0. As for A22U A30U U62C U130C, the figure is 0.29. Turning to A24G C123U A140G, the self-cleavage amounted to 1.49.

For the variant G25A U52C U102C A129G, the self-cleavage was 1.79. On to U23C G54A A57G A77G, for which the self-cleavage is 0.1. As for A22G U109A A117G, the self-cleavage is 1.11. In the case of A24G G105U A136G it was 1.42. As for G25A U26C U47C A78G, the figure is 0.9; as for A24G A42G U52C A59U U102C, 1.53; as for U23C U132A U143C, 1.41. Consider U23C U46C A129G, for which the self-cleavage is 1.02.

For the variant U23C U52A U62C C71U A121G, the self-cleavage was 0.02. As to U23A U73C C118U, the self-cleavage is 1.01.

Consider A24C U91C A117U U132A, for which the self-cleavage turned out to be 0.8. As for A24G C68U U102G A141G, the figure is 0.24. In the case of A22U U52A A57U A65G it was 0.06. As for A24G A42G A43G, the figure is 0.54. As to A22G U52G A78G U91A U96A, the self-cleavage is 0. In the case of A22U A50G A140G it was 0.65; in that of A22G U46C A79U U143A, 0.73.

As for U23C U102C U119C G126A, the self-cleavage turned out to be 2.53.

Consider A24G U85A G97U U104C G114U U115A, for which the self-cleavage is 0.05. As for U23G C28A A59G A124G, the figure is 0; as for U23A A124G G125U, 1.53. As for A22G U46A U119C, the self-cleavage is 1.07.

Consider U23C A69U U109A, for which the self-cleavage worked out at 0.05. Consider A24G C38U A77G U96C, for which the self-cleavage was 0.11. Turning to A24U A78G U115C, the self-cleavage came to 0.96. As for A22U U26C U119C, the figure is 1.77. On to U26A A57G U115C, for which the self-cleavage is 0.98. On to U26A A50G U52A C66U A121U G135A, for which the self-cleavage was 0.07. As for A24G C37U A59G U115C, the figure is 0.2.

Take A24G U87G C95U A138U: the self-cleavage came to 0.18. In the case of U26A A64G U132A it was 0.14; in that of A24G A42G A50C A57G A117U C128U A141G, 0. As for U23A A24G U52A A136G, the self-cleavage came out at 1.58.

In the case of U23A A64G U100C, the self-cleavage turned out to be 0.35. As for A24G G36U A42G A57G U100A, the figure is 0.38; as for A22G U96C U100C U108C C116U, 0.61. In the case of A24G U45C U134A it was 1.53; in that of U23G U52A A67C A124U, 0; in that of A22U U45G U100C, 0.73. As for A22G U62C U104C U119A A138G, the figure is 0.18; as for U23C G53U U87A U96C, 0.04. U23A G35C C131G A136G: the self-cleavage turned out to be 0.76. In the case of U23C A117U A129G A142G it was 2.16; in that of U23C A67G A78G, 0; in that of U23A U47G U96A U130C, 0.08.

As for A24G U85C A94G U104C C128U C145A, the self-cleavage amounted to 0. In the case of G25U A57G A67G U85A it was 0; in that of U23A A50U U81A U100A, 1.23; in that of A24G U46C U132C, 2.94. Turning to U23C U26C U47C, the self-cleavage came to 2.36. A24U U45C U52A A65U U96A A142G: the self-cleavage is 0.02.

As to A22G U73C U87A C123A, the self-cleavage worked out at 0.08. Consider A24C A129G U130C, for which the self-cleavage was 2.51. For the variant U23C A42U U81C U87C U132C, the self-cleavage was found to be 0. In the case of A24G A43G C90U it was 0.14. On to A22G U115C A142G, for which the self-cleavage was 2.52.

Regarding A24G U46A U47C A94U U115C, the self-cleavage came to 0. In the case of A24U G60A A67G U73C U102C it was 0; in that of A24G U47C A77G, 2.22; in that of A24U G27C A57G U130C A141U, 1.84. In the case of U23A U39C A107U G126A it was 0.67. As for A22U A124G A138G, the figure is 1.89; as for U26A A43U A107G A142G, 1.13. Turning to A24U U39C U46C U73A, the self-cleavage came to 2.08. As for U23C G34A U39A, the figure is 1.07; as for G25A U96C G126A, 0.14; as for G25C U85C A138G, 0.39. As for A22U U26C U91C, the figure is 1.95; as for U23C U52C U85G, 0. In the case of A22U A69U A121G it was 0.13. For A22U A42U U130C, the self-cleavage was determined as 1.37. Consider G25C G34U A57U, for which the self-cleavage stood at 0.12. As for A22G U119A A141G, the figure is 1.3; as for A24C U47A U85G G88A U96A U102C U132C, 0.1. In the case of A22G U96C A138U it was 0; in that of G25A U26G A124C, 0.98. As to U23G G34A A92U, the self-cleavage came to 1.07. Take U23C U115C A140G A141G: the self-cleavage was determined as 2.38. As for G25A U47C A57G A136G, the figure is 0.38. In the case of A24U U52A A78G A79G U108A U132C it was 1.53. In the case of U23C U108C U109C G137U it was 0.8; in that of U26A A50G C95U G127U, 0.09. Consider A22U A57G C90U U96C U104C, for which the self-cleavage is 0.

In the case of A24G U26C A77U U108C, the self-cleavage stood at 0.3. For A24U U62C U143C, the self-cleavage was determined as 0.14. As for U23C U119C A129G, the self-cleavage was 0.71. For the variant U26A A65G A67G G75U U87C, the self-cleavage stood at 0.09. For A24G U52C U85C, the self-cleavage came to 0. With U23C U47G G126U, the self-cleavage is 1.32. In the case of U26A A64G G74U G80A U109C U130C A141G it was 0.26; in that of U23C G35U U81C U134C A142G, 2.3; in that of U23C A124U A138G, 0.79. As for A24G U26C A140G A142G, the figure is 0.6; as for A22G U87C U102C U104A A117U, 0.63; as for U26A A42U A77G, 0.76. Regarding U23C A31U A69U U108A, the self-cleavage came to 0.1. Consider A24G A117G G122A, for which the self-cleavage was 1.25. In the case of A24C A67G A140G it was 0; in that of U23C G54A A59U, 0.63. In the case of U23C A31G C98U U115C it was 1.49. In the case of A24G A117U U143C it was 1.36; in that of U23A A69U U104C A138G, 0.

Take U23A U45A U96A: the self-cleavage came to 0.07. Regarding A22U U91A A129G A141G G144A, the self-cleavage turned out to be 0.62. Regarding A24G A57G A69C, the self-cleavage is 0. Regarding A24U A59U U62A A136G U143C, the self-cleavage came out at 0.14.

On to A24G A43G A117C, for which the self-cleavage amounted to 0.85. A24G U62A U96A: the self-cleavage came out at 0.13. Regarding A24U U47G A69U, the self-cleavage was 0.07. Take A24G G36A U52C: the self-cleavage turned out to be 1.03.

In the case of A22G U87A A141G, the self-cleavage came out at 0.12. With U23C U102A A141G, the self-cleavage stood at 1.19. Take A22G U96A U130C: the self-cleavage amounted to 0. U23C U85A U104C: the self-cleavage was 0.1.

For the variant A22U U52A U132C, the self-cleavage is 0.78. Take A24G A59U G105A A138G: the self-cleavage amounted to 1.04. In the case of A22U U91A U96C it was 0. As to U23C A30G A136U, the self-cleavage is 0. In the case of U23C A50G U52A A59G U143C, the self-cleavage is 0. In the case of A22G U47A C103U U132C, the self-cleavage was determined as 1.68.

Regarding A22G U85C U130C, the self-cleavage is 0. In the case of A22G U73G U96A it was 0.1; in that of A24G A31U U132G, 1.71. With U23C U73C A124C, the self-cleavage was 1.84. For A24U A77U U115A, the self-cleavage amounted to 0.77. Turning to U23A A50G A92U, the self-cleavage was 0.57.

With A22G U102A A107U U109A, the self-cleavage worked out at 2.19. Turning to A24U U39A U46C C103U U115C, the self-cleavage was 1.19. Regarding U23C C71A A77U A79G U87C C110U A136U, the self-cleavage worked out at 0.03. In the case of A22U A64G A65G C116U it was 0.07; in that of U23A U73C A78U A94G, 0.38; in that of A22U U39C A65G A142G, 0.09. Consider A22U U115C A129C, for which the self-cleavage worked out at 1.12.

As to A24G U134C A141G, the self-cleavage was 2.63. In the case of G25U A50G A69U U104C it was 0.2. Take A24G A57U U112C G126U: the self-cleavage turned out to be 0.22. With A22G U62A G139A, the self-cleavage came out at 0.15.

As for A22G U47C A141G, the self-cleavage came out at 1.11.

The record behind these values is the RNAGym collection of RNA variant scans (doi:10.7554/elife.90254).
